In paper PMC4336329 (PLoS ONE, 2015):
In all, about 310,000 compounds went through this assay and about 2,200 (0.71%) showed an effect of 50% or more. Effects have a minus sign here. Some of the results follow. Where a SMILES comes first, the peptide text is derived from it. The star is where a group is joined. Bz = O=C(c1ccccc1)*

These molecules were tested against human ether-à-go-go-related gene (hERG) potassium channel (human, UniProt Q12809) (assay: primary screen, population patch clamp on CHO cells stably expressing hERG).
human ether-à-go-go-related gene (hERG) potassium channel, sequence (Q12809 whole entry, looked up): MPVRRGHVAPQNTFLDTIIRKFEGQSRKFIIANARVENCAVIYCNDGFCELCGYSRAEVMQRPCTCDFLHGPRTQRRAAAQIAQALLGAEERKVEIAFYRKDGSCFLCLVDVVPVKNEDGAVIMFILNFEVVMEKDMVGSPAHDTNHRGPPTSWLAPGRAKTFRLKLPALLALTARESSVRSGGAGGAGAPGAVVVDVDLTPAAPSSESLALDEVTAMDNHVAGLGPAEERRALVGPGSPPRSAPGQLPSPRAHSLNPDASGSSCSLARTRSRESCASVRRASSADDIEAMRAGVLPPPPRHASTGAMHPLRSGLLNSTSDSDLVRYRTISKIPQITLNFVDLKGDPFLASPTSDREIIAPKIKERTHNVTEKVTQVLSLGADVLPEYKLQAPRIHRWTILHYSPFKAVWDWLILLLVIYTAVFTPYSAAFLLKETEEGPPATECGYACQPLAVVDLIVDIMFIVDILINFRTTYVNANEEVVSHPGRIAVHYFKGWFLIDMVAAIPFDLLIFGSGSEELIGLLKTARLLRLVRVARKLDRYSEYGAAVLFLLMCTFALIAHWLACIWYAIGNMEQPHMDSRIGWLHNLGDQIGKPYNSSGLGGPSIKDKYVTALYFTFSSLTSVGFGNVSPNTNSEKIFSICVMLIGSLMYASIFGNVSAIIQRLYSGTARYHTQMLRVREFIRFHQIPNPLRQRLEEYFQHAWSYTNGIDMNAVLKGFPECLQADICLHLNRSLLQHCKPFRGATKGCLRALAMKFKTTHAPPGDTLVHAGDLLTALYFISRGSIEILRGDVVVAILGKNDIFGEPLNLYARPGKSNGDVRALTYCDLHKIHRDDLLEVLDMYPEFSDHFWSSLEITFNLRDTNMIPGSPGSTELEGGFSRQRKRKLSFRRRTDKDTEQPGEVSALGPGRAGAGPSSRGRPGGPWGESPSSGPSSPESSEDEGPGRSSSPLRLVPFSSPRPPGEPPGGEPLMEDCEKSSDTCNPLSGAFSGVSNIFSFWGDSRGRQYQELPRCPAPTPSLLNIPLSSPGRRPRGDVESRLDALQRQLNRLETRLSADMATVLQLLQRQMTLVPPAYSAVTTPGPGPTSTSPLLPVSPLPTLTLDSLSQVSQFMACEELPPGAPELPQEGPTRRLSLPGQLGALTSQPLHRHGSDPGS

Point of comparison: `COc1ccc(C(=O)N/C(=C\c2cn(S(=O)(=O)N(C)C)c3ccccc23)C(=O)N2CCOCC2)cc1`, “hERG current change (%, negative = inhibition) at 1uM” value 3.54%. Against it:
- COc1ccccc1C(=O)NCCC(=O)NC(C)c1ccc(-n2ccnc2)cc1 (stereo not drawn) — higher, 7.09%
- CCOC(=O)c1sc(=NC(=O)CCSc2ccccc2)n(C)c1C — higher, 6.7%
- CSc1ccc(CNC(=O)C2Cc3cc(S(=O)(=O)N4CCCCC4)ccc3N2C(C)=O)cc1 (stereo not drawn) — lower, -1.82%
- CCc1nc2ccccc2c(C(=O)OCC(=O)NCc2ccco2)c1C — lower, 1.64%
- CCCCNC(=O)Cn1cnc([N+](=O)[O-])n1 — higher, 12.7%
- O=C1CCCC2=C1C(c1ccc(OS(=O)(=O)c3ccc(Cl)cc3)cc1)C1=C(CCCC1=O)O2 — lower, -9.34%
- O=C(/C=C/c1ccco1)Nc1cc(Cl)ccc1C(=O)O — lower, -1.79%
- CC1(C)CC(=O)C=C(OC(=O)c2ccc(Cl)cc2)C1 — higher, 15.8%
- CC1(C)CC(=O)C(N=Nc2ccc(-c3ccccc3)cc2)=C(O)C1 — higher, 9.63%
- Nc1[nH]n2c(=O)cc(-c3ccccc3)nc2c1N=Nc1ccc2c(c1)OCO2 — higher, 19.5%
- Cc1ccc(S(=O)(=O)NCC2CCC(C(=O)NCc3cccnc3)CC2)cc1 (stereo not drawn) — higher, 8.6%
- O=c1c2ccccc2nc2c3ccccc3c(NCCO)nn12 — higher, 13.8%
- O=C(COc1ccc([N+](=O)[O-])cc1)N/N=C/c1ccccn1 — higher, 4.6%
- COc1ccccc1C1CC2CCC(C1OC(C)=O)N2Cc1ccccc1 (stereo not drawn) — higher, 11.1%
- COc1ccccc1C(=O)Nc1ccc(OCC(=O)N2CC(C)OC(C)C2)cc1 (stereo not drawn) — higher, 3.91%
- CCN(CC)CCNC(=O)C(=O)NCC1OCCN1S(=O)(=O)c1ccc(Cl)cc1 (stereo not drawn) — higher, 11.1%
- COc1ccc2nccc(C(N)=O)c2c1 — lower, -3.54%
- COc1cc(OC)cc(C(=O)N[C@H](C(=O)NCc2ccccc2)C(C)C)c1 — higher, 6.55%
- O=S(=O)(c1ccccc1)c1nc(-c2ccccc2)oc1N1CCOCC1 — higher, 6.92%
- O=C(COC(=O)c1ccc(S(=O)(=O)N2CCOCC2)cc1)Nc1nc(-c2ccccc2)cs1 — lower, -2.32%
- Cc1c(C)c(C)c(S(=O)(=O)NCCc2ccccn2)c(C)c1C — lower, 1.84%
- COC(=O)c1sc2ncccc2c1OCc1cccc(Cl)c1 — higher, 14.8%
- O=C(c1ccc2c(=O)n(Cc3ccc(Cl)cc3)c(=S)[nH]c2c1)N1CCCC1 — higher, 17%
- O=C(CCNc1n[nH]c(=O)[nH]c1=O)N/N=C/c1ccc(C(F)(F)F)cc1 — higher, 10.8%
- CCn1c(SCC(=O)Nc2cccc(C)c2)nc2nc3c(cc2c1=O)COC(C)(C)C3 — higher, 4.55%
- O=c1[nH]n(-c2ccccc2)c(=O)c2ccccc12 — higher, 5.47%
- Cc1noc(C)c1C(=O)OCC(=O)NCCC1=CCCCC1 — higher, 15.8%
- COc1ccc(CCNC(=O)CS(=O)Cc2nc(-c3ccc(C)cc3)oc2C)cc1OC (stereo not drawn) — lower, 1.24%
- COc1ccccc1-c1c(C)nn2c(N3CCCCCC3)cc(C)nc12 — higher, 6.37%
- COc1cccc(Cn2c(=O)oc3ccccc32)c1 — higher, 13.4%
- Cc1cccc(C)c1NC(=O)C(C)N1CCCC1 (stereo not drawn) — higher, 5.65%
- CCCCCc1nc2sc3c(c2c(=O)n1NC(=O)c1ccc([N+](=O)[O-])cc1)CC(C)(C)OC3 — higher, 4.62%
- CCCCOc1nc(N)nc(-c2ccccc2)n1 — higher, 12.3%
- O=C(OCc1c(-c2ccccc2)ncc2ccccc12)c1ccc(Cl)cc1Cl — higher, 12%
- COc1ccc(CCNC(=O)CS(=O)(=O)c2cn(CC(=O)N3CCOCC3)c3ccccc23)cc1OC — higher, 8.59%
- COC(=O)c1cc(C(=O)c2cc(Cl)ccc2O)coc1=N — higher, 4.3%
- CCCCCC(=O)Nc1nc(C)c(-c2csc(Nc3ccccc3OCC)n2)s1 — higher, 5.26%
- O=C(NCCc1ccc(Cl)cc1)c1cccc(N2CCCC2=O)c1 — higher, 3.74%
- CN(C)CCCOC(=O)C1c2ccccc2Oc2ccccc21.Cl — lower, -1.74%
- COc1ccc2oc(CS(=O)c3ccccc3)c(C(=O)O)c2c1 (stereo not drawn) — higher, 13.7%
- CC(=O)c1cccc(NS(=O)(=O)c2ccc3c(c2)N(C(C)=O)CCO3)c1 — higher, 15.8%
- Cc1cc(C)c(C)c(S(=O)(=O)N2CCN(c3ncnc4ccccc34)CC2)c1C — higher, 14.2%
- O=C(O)c1ccc(C2SCC(=O)N2Cc2ccco2)cc1 (stereo not drawn) — higher, 9.2%
- COC(=O)C(NC(=O)C(NC(=O)c1ccccc1)C(C)C)C(C)C (stereo not drawn) (Bz-Val-Val-OMe; configuration not given here) — higher, 7.11%
- CCn1cc(/C=N/NC(=O)COc2cccc3cccnc23)c2ccccc21 — higher, 6.66%
- COc1ccc(S(=O)(=O)N2CCCC(C(=O)NC3CC3)C2)cc1OC (stereo not drawn) — higher, 4.63%
- CCCC(=O)C1=C(O)C(C(=O)OC)C(C)(C)CC1=Nc1ccccc1 (stereo not drawn) — lower, 3.42%
- CCCCC(=O)NC(c1ccccc1)c1ccc2cccnc2c1O (stereo not drawn) — higher, 7.88%
- CCN(CC)c1ccc(C(=O)OCC(=O)N(C(C)C)C(C)C)cc1 — higher, 3.88%
- Cc1cccc(NC(=O)CS(=O)(=O)Cc2ccccc2)n1 — lower, 1.1%
- CCOC(=O)C1=C(CNC(C)(C)CC(C)(C)C)NC(=O)NC1c1cccc([N+](=O)[O-])c1 (stereo not drawn) — lower, -11.3%
- COc1cc(C(=O)COC(=O)C2CCN(c3ccc(C(F)(F)F)cn3)CC2)ccc1OC(F)F — lower, -3.99%
- CC(C)(C)Nc1nc(SCc2ccccc2)nc(N2CCOCC2)n1 — lower, -4.98%
- CC1CCN(Cc2ccc(NC(=O)C3CCN(c4nnc(-n5cccc5)s4)CC3)cc2)CC1 — higher, 11.7%
- CCOCC(=O)Nc1cc(C(=O)Nc2cccc(C)c2C)ccc1Cl — higher, 13.3%
- COCCOc1ccc(C(F)(F)F)cc1NC(=O)CN1C(=O)NC2(CCc3ccccc32)C1=O (stereo not drawn) — higher, 5.25%
- COc1ccc(C(=O)NCCNC(=O)c2ccc(OC)cc2)cc1 — higher, 15.7%
- Cc1c(C)c(C)c(CN2CCSCC2)c(C)c1C — higher, 16.3%
- CCOC(=O)/C(C#N)=C/c1cc2ccccc2nc1N1CCCCC1 — higher, 8.45%
- CC1CCC/C(=N/Nc2nc3ccccc3s2)C1 (stereo not drawn) — higher, 6.62%
- COC(=O)C(c1ccccc1)C(C(=O)OC)c1ccccc1 (stereo not drawn) — higher, 8.3%
- N/C(=N\N=C\c1ccc(O)c(O)c1)c1nonc1N — lower, 2.03%
- CCOc1ccc2oc(C(=O)OCC(=O)NCc3ccc(OC)cc3)c(C)c2c1 — lower, -0.0082%
- O=C(CNC(=S)N(CCCN1CCOCC1)Cc1cccs1)N1CCOCC1 — higher, 5.38%
- O=C(COc1ccccc1C(=O)NCC1CCCO1)Nc1ccc(Cl)cc1Cl (stereo not drawn) — higher, 10.7%
- Fc1cccc(F)c1CN1CCN(Cc2c(F)cccc2F)CC1 — higher, 5.79%
- CCn1c(CC(=O)Nc2ccccc2Cl)nnc1SCC(=O)NC1CCCC1 — higher, 13.7%
- COc1ccc2c(c1OC)c(=O)n1c3ccc(OC(C)C(=O)NCCCN4CCOCC4)cc3c3ccnc2c31 (stereo not drawn) — higher, 4.67%
- CCOC(=O)C1=C(C)C(c2ccc(OC)cc2OC)NC(=O)N1 (stereo not drawn) — higher, 8.75%
- COc1ccc(C2=NCC(=O)N(CC(=O)NCc3ccco3)c3sc4c(c32)CCCC4)cc1 — lower, -0.515%
- O=C(NNS(=O)(=O)c1ccccc1F)c1ccccc1-n1cccc1 — higher, 5.06%
- CCCC(C)NC(=O)C1CCN(S(=O)(=O)c2ccccc2)CC1 (stereo not drawn) — lower, 1.63%
- Cn1c(=O)c2c(nc(N3CCOCC3)n2Cc2c(F)cccc2Cl)n(C)c1=O — higher, 7.99%
- CC(C)N1C(=O)CCC1C(=O)N1CCC2(CC1)OCCO2 (stereo not drawn) — lower, -7.6%
- Cc1cc(NC(=O)Nc2ccc(Cl)cc2)n(C)n1 — higher, 10.6%
- CCCCn1c(N)c(N(CCOC)C(=O)COC(=O)COc2ccccc2C#N)c(=O)[nH]c1=O — higher, 7.9%
- COc1ccc(/C=N/OCc2ccc(Br)cc2)c(OC)c1 — higher, 14.1%
- CN(C(=O)c1cc(-c2ccc3c(c2)OCO3)on1)c1ccccc1 — higher, 11%
- Cc1ccc(-n2cc(CNC(C)c3cnn(C)c3)c(-c3ccc(F)cc3)n2)cc1 (stereo not drawn) — lower, -0.806%
- COc1c(Cl)ccc(Cl)c1C(=O)NC(=O)N1CCOCC1 — lower, 0.0853%
- Cc1ccc(C)c(N(Cc2cc3ccc(C)cc3[nH]c2=O)C(=O)c2ccco2)c1 — higher, 7.61%
- O=C(Nc1nnc(Cc2ccc(Cl)cc2)s1)c1ccco1 — higher, 7.67%
- O=C1C(=O)N(c2cccc(Cl)c2)C(c2ccccc2[N+](=O)[O-])/C1=C(\O)c1ccccc1 (stereo not drawn) — higher, 7.28%
- CCn1nnnc1-c1ccc(OC)c(S(=O)(=O)Nc2ccc(C)c(C)c2)c1 — higher, 15.6%
- COc1cc(/C=C/C(=O)NCC2CCCCC2)cc(OC)c1OC — higher, 20.5%
- COc1ccccc1CN(C)C(=O)c1cc(C)nc2ccccc12 — lower, -47.6%
